{"source": "the supplement of paper PMC12067093", "about": "“Discovery and optimisation of a covalent ligand for TRIM25 and its application to targeted protein ubiquitination” (Chemical Science, 2025)", "compound": "Cc1cc(ccc1-c1ccccc1)C(=O)N1CCCN(CC1)C(=O)CCl [compound 10]", "test": "probe-labelled cysteine peptide fold change vs DMSO (competition) (log2 fold change); higher = less target engagement (more negative = stronger competition)", "conditions": "THP-1, incubation time: 4 h", "note": "Targets with the largest changes are over-represented here; the source holds about 21,000 in all.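 Also: competitive profiling in live THP-1 cells: cysteine peptides tagged with an iodoacetamide desthiobiotin (IA-DTB) probe, intensity after compound treatment relative to DMSO-treated cells.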", "data": [{"target": "KPNA5_O15131_427_PLCDLLTVMDSK<|>KPNA6_O60684_427_PLCDLLTVMDSK<|>KPNA1_P52294_429_PLCDLLTVMDSK (UniProt P52294+O60684+O15131)", "values": [{"measurement": "probe-labelled cysteine peptide fold change", "setting": "10 µM", "result": 0.15}, {"measurement": "probe-labelled cysteine peptide fold change", "setting": "50 µM", "result": 0.0435}]}, {"target": "HUWE1_Q7Z6Z7_1401_AESPEEVACR (UniProt Q7Z6Z7)", "values": [{"measurement": "probe-labelled cysteine peptide fold change", "setting": "10 µM", "result": -0.23}, {"measurement": "probe-labelled cysteine peptide fold change", "setting": "50 µM", "result": -0.068}]}, {"target": "L2HGDH_Q9H9P8_187_GLMAIDCPHTGIVDYR (UniProt Q9H9P8)", "values": [{"measurement": "probe-labelled cysteine peptide fold change", "setting": "10 µM", "result": 0.00491}, {"measurement": "probe-labelled cysteine peptide fold change", "setting": "50 µM", "result": -0.175}]}, {"target": "IGF2R_P11717_1270_LSSDVCPTSDK (UniProt P11717)", "values": [{"measurement": "probe-labelled cysteine peptide fold change", "setting": "10 µM", "result": -0.189}, {"measurement": "probe-labelled cysteine peptide fold change", "setting": "50 µM", "result": -0.168}]}, {"target": "IGF2R_P11717_275+288_EEAGKLDFCDGHSPAVTITFVCPSER (UniProt P11717)", "values": [{"measurement": "probe-labelled cysteine peptide fold change", "setting": "10 µM", "result": -0.114}, {"measurement": "probe-labelled cysteine peptide fold change", "setting": "50 µM", "result": -0.241}]}, {"target": "IFRD2_Q12894_409_AVLHSVEGGECEEEIVR (UniProt Q12894)", "values": [{"measurement": "probe-labelled cysteine peptide fold change", "setting": "10 µM", "result": 0.157}, {"measurement": "probe-labelled cysteine peptide fold change", "setting": "50 µM", "result": 0.456}]}, {"target": "HSPA1A_P0DMV8_306_ARFEELCSDLFR<|>HSPA1B_P17066_306_ARFEELCSDLFR<|>HSPA6_P48741_308_ARFEELCSDLFR (UniProt P48741+P17066+P0DMV8)", "values": [{"measurement": "probe-labelled cysteine peptide fold change", "setting": "10 µM", "result": 0.89}, {"measurement": "probe-labelled cysteine peptide fold change", "setting": "50 µM", "result": 1.28}]}, {"target": "ITPRID2_P28290_448_EPCAPLTIPSIR (UniProt P28290)", "sequence (P28290 whole entry, looked up)": "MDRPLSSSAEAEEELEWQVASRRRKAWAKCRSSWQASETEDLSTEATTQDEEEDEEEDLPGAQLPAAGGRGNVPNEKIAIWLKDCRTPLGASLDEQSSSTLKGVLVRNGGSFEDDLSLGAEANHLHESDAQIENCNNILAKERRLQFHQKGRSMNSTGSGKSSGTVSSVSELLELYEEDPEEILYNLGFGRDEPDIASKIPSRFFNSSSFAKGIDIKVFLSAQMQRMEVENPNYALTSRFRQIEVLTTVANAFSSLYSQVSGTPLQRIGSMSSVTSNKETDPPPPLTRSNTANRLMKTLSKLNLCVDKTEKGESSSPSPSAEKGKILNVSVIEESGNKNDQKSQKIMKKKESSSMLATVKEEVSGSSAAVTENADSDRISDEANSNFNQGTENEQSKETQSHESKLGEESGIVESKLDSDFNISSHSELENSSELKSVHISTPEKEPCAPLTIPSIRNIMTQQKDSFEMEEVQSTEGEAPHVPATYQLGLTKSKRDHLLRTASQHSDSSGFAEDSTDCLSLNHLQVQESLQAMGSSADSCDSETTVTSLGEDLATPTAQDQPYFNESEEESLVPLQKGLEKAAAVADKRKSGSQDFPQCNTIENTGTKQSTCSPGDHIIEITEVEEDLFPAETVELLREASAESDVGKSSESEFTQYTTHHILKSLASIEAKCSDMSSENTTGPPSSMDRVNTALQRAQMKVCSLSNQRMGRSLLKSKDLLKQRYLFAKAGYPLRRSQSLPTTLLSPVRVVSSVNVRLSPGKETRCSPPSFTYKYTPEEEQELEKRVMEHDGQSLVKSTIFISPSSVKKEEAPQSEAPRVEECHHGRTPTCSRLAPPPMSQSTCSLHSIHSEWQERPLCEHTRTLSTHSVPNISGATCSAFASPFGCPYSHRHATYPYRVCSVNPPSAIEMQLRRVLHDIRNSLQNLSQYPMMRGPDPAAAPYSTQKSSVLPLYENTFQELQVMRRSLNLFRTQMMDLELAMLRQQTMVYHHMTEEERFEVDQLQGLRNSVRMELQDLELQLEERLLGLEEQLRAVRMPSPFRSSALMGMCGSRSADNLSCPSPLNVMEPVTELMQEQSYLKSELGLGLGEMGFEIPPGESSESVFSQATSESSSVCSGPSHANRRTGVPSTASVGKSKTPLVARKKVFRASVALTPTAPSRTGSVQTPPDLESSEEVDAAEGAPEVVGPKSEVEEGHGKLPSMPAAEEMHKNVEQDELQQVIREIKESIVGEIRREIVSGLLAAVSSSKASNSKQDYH", "values": [{"measurement": "probe-labelled cysteine peptide fold change", "setting": "10 µM", "result": -0.245}, {"measurement": "probe-labelled cysteine peptide fold change", "setting": "50 µM", "result": -0.0121}]}, {"target": "HNRNPUL2_Q1KMD3_538_RNFILDQCNVYNSGQR (UniProt Q1KMD3)", "values": [{"measurement": "probe-labelled cysteine peptide fold change", "setting": "10 µM", "result": -0.0524}, {"measurement": "probe-labelled cysteine peptide fold change", "setting": "50 µM", "result": 0.251}]}, {"target": "ILF2_Q12905_291_CLQILAAGLFLPGSVGITDPCESGNFR (UniProt Q12905)", "values": [{"measurement": "probe-labelled cysteine peptide fold change", "setting": "10 µM", "result": 0.343}, {"measurement": "probe-labelled cysteine peptide fold change", "setting": "50 µM", "result": -0.076}]}, {"target": "KIFC1_Q9BW19_95_CSTAIATGLK (UniProt Q9BW19)", "values": [{"measurement": "probe-labelled cysteine peptide fold change", "setting": "10 µM", "result": -0.0276}, {"measurement": "probe-labelled cysteine peptide fold change", "setting": "50 µM", "result": -0.161}]}, {"target": "IRF9_Q00978_241_VVGEAQVQSLDCR (UniProt Q00978)", "values": [{"measurement": "probe-labelled cysteine peptide fold change", "setting": "10 µM", "result": -0.179}, {"measurement": "probe-labelled cysteine peptide fold change", "setting": "50 µM", "result": -0.266}]}, {"target": "JMJD1C_Q15652_2163_LYSDIPHSWICEK (UniProt Q15652)", "values": [{"measurement": "probe-labelled cysteine peptide fold change", "setting": "10 µM", "result": -0.133}, {"measurement": "probe-labelled cysteine peptide fold change", "setting": "50 µM", "result": -0.539}]}, {"target": "HUWE1_Q7Z6Z7_3658_AQCETLSPDGLPEEQPQTTK (UniProt Q7Z6Z7)", "values": [{"measurement": "probe-labelled cysteine peptide fold change", "setting": "10 µM", "result": -0.312}, {"measurement": "probe-labelled cysteine peptide fold change", "setting": "50 µM", "result": -0.32}]}, {"target": "IDUA_P35475_241_HCHDGTNFFTGEAGVR (UniProt P35475)", "values": [{"measurement": "probe-labelled cysteine peptide fold change", "setting": "10 µM", "result": 0.242}, {"measurement": "probe-labelled cysteine peptide fold change", "setting": "50 µM", "result": -0.158}]}, {"target": "KDM2A_Q9Y2K7_429_TLAGDSSSDCSR (UniProt Q9Y2K7)", "sequence (Q9Y2K7 whole entry, looked up)": "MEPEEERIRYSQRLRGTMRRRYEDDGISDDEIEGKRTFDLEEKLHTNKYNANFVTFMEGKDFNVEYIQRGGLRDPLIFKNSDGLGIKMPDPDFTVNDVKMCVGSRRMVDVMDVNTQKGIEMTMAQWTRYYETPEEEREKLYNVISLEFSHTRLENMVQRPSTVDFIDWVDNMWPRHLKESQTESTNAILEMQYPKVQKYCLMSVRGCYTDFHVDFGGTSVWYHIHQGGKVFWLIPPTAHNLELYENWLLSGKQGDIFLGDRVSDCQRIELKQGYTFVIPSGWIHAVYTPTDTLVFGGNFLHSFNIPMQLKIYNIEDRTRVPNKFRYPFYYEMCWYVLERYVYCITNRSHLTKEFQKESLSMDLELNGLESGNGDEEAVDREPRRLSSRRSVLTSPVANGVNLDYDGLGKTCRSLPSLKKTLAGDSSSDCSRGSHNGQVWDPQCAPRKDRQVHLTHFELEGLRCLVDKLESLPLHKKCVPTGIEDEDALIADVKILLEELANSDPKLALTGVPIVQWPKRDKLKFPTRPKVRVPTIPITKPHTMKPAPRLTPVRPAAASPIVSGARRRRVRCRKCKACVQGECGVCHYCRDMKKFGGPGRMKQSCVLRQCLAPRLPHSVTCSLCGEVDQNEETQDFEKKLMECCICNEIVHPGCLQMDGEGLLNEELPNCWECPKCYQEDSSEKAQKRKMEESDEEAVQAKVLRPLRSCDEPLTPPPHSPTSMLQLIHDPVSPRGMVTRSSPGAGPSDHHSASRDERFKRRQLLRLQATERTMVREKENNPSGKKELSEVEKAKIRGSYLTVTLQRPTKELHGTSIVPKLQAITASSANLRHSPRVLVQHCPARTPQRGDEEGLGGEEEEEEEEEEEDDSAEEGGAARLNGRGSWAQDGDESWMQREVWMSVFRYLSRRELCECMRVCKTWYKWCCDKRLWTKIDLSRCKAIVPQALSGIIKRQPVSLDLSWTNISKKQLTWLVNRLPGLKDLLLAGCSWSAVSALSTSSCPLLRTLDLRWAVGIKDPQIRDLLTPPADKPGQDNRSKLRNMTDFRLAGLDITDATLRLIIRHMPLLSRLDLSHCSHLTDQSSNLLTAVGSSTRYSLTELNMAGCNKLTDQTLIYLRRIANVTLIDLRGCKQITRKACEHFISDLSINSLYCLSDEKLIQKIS", "values": [{"measurement": "probe-labelled cysteine peptide fold change", "setting": "10 µM", "result": -0.335}, {"measurement": "probe-labelled cysteine peptide fold change", "setting": "50 µM", "result": -0.285}]}, {"target": "KIF5B_P33176_65_VFQSSTSQEQVYNDCAK (UniProt P33176)", "sequence (P33176 whole entry, looked up)": "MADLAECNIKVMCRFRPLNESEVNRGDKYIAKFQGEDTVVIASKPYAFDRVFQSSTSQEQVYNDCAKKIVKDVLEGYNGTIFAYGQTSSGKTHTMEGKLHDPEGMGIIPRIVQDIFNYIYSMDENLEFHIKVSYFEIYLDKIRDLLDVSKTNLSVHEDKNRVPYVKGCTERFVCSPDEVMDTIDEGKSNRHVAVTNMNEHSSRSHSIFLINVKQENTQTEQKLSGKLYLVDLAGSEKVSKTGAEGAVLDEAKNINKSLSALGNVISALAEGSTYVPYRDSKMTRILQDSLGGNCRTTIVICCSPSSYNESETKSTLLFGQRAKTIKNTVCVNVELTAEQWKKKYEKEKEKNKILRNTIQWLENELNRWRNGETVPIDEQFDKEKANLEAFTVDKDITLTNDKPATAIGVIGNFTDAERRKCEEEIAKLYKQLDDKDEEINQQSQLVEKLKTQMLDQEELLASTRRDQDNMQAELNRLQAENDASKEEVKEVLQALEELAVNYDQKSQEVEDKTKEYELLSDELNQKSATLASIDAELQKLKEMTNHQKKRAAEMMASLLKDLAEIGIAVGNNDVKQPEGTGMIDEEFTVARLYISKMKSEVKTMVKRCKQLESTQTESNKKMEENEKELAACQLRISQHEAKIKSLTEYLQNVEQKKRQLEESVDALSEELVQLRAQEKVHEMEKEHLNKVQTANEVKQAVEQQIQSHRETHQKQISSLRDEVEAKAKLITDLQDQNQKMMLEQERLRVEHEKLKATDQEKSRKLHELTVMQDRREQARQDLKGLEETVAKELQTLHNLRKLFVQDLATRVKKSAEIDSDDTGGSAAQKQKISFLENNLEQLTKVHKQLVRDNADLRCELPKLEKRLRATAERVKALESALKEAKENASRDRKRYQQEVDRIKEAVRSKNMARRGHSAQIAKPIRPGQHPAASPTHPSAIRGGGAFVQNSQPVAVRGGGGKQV", "values": [{"measurement": "probe-labelled cysteine peptide fold change", "setting": "10 µM", "result": -0.0182}, {"measurement": "probe-labelled cysteine peptide fold change", "setting": "50 µM", "result": 0.0429}]}, {"target": "KBTBD11_O94819_257_DAAYCFMSDHYLEVLR (UniProt O94819)", "values": [{"measurement": "probe-labelled cysteine peptide fold change", "setting": "10 µM", "result": -0.0308}, {"measurement": "probe-labelled cysteine peptide fold change", "setting": "50 µM", "result": -0.131}]}, {"target": "KTI12_Q96EK9_103_TPLCLVYCVRPGGPIAGPQVAGANENPGR (UniProt Q96EK9)", "sequence (Q96EK9 whole entry, looked up)": "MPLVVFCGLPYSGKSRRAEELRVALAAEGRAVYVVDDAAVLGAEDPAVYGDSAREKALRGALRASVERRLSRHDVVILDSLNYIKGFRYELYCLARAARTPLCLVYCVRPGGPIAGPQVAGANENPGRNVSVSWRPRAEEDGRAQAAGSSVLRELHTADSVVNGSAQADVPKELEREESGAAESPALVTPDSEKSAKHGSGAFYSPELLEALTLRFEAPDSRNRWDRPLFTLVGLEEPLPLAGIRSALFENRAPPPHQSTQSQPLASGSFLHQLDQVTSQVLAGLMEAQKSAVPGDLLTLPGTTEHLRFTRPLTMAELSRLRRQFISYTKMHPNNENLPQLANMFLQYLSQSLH", "values": [{"measurement": "probe-labelled cysteine peptide fold change", "setting": "10 µM", "result": -0.18}, {"measurement": "probe-labelled cysteine peptide fold change", "setting": "50 µM", "result": -0.433}]}, {"target": "KEAP1_Q14145_319_IFEELTLHKPTQVMPCR (UniProt Q14145)", "values": [{"measurement": "probe-labelled cysteine peptide fold change", "setting": "10 µM", "result": -0.0511}, {"measurement": "probe-labelled cysteine peptide fold change", "setting": "50 µM", "result": -1.48}]}, {"target": "HNRNPM_P52272_676_DKFNECGHVLYADIK (UniProt P52272)", "values": [{"measurement": "probe-labelled cysteine peptide fold change", "setting": "10 µM", "result": -0.0946}, {"measurement": "probe-labelled cysteine peptide fold change", "setting": "50 µM", "result": -1.48}]}, {"target": "KNL1_Q8NG31_638_SSSDECEEITK (UniProt Q8NG31)", "values": [{"measurement": "probe-labelled cysteine peptide fold change", "setting": "10 µM", "result": -0.158}, {"measurement": "probe-labelled cysteine peptide fold change", "setting": "50 µM", "result": -0.325}]}, {"target": "KIF2A_O00139_309_GMATCFAYGQTGSGK (UniProt O00139)", "values": [{"measurement": "probe-labelled cysteine peptide fold change", "setting": "10 µM", "result": 0.0819}, {"measurement": "probe-labelled cysteine peptide fold change", "setting": "50 µM", "result": -0.0128}]}, {"target": "ITGAM_P11215_123_GLCFLFGSNLR (UniProt P11215)", "values": [{"measurement": "probe-labelled cysteine peptide fold change", "setting": "10 µM", "result": 0.0447}, {"measurement": "probe-labelled cysteine peptide fold change", "setting": "50 µM", "result": 0.155}]}, {"target": "HUWE1_Q7Z6Z7_2721_ENRDQSAQCTASK (UniProt Q7Z6Z7)", "values": [{"measurement": "probe-labelled cysteine peptide fold change", "setting": "10 µM", "result": -0.519}, {"measurement": "probe-labelled cysteine peptide fold change", "setting": "50 µM", "result": -1.1}]}, {"target": "KPNA4_O00629_417_DQVAYLIQQNVIPPFCNLLTVK (UniProt O00629)", "sequence (O00629 whole entry, looked up)": "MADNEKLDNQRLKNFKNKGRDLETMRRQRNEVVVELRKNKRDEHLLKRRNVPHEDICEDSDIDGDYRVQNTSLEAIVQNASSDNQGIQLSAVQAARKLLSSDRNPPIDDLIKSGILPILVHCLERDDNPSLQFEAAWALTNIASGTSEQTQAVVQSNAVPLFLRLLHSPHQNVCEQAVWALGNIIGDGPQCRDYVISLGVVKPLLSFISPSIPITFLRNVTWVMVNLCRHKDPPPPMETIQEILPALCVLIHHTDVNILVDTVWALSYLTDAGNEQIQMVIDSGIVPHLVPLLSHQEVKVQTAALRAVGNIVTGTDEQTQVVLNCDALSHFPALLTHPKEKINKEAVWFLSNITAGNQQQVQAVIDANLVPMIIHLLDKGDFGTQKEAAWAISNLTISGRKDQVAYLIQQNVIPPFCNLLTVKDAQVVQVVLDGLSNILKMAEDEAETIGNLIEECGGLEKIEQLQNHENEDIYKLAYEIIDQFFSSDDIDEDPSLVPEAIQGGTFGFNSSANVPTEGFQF", "values": [{"measurement": "probe-labelled cysteine peptide fold change", "setting": "10 µM", "result": 0.479}, {"measurement": "probe-labelled cysteine peptide fold change", "setting": "50 µM", "result": 0.345}]}, {"target": "HSPA4_P34932_245_KFDEVLVNHFCEEFGKK (UniProt P34932)", "values": [{"measurement": "probe-labelled cysteine peptide fold change", "setting": "10 µM", "result": -0.138}, {"measurement": "probe-labelled cysteine peptide fold change", "setting": "50 µM", "result": -0.572}]}, {"target": "LAMTOR2_Q9Y2Q5_76_FILMDCMEGR (UniProt Q9Y2Q5)", "sequence (Q9Y2Q5 whole entry, looked up)": "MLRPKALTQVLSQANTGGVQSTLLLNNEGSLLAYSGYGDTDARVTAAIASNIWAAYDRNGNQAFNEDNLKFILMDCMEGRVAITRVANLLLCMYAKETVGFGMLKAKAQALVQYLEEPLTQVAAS", "values": [{"measurement": "probe-labelled cysteine peptide fold change", "setting": "10 µM", "result": -0.0538}, {"measurement": "probe-labelled cysteine peptide fold change", "setting": "50 µM", "result": 0.143}]}, {"target": "KANSL3_Q9P2N6_103_SVMNECER (UniProt Q9P2N6)", "values": [{"measurement": "probe-labelled cysteine peptide fold change", "setting": "10 µM", "result": -0.184}, {"measurement": "probe-labelled cysteine peptide fold change", "setting": "50 µM", "result": 0.0606}]}, {"target": "HSPA2_P54652_606_VCNPIISK (UniProt P54652)", "sequence (P54652 whole entry, looked up)": "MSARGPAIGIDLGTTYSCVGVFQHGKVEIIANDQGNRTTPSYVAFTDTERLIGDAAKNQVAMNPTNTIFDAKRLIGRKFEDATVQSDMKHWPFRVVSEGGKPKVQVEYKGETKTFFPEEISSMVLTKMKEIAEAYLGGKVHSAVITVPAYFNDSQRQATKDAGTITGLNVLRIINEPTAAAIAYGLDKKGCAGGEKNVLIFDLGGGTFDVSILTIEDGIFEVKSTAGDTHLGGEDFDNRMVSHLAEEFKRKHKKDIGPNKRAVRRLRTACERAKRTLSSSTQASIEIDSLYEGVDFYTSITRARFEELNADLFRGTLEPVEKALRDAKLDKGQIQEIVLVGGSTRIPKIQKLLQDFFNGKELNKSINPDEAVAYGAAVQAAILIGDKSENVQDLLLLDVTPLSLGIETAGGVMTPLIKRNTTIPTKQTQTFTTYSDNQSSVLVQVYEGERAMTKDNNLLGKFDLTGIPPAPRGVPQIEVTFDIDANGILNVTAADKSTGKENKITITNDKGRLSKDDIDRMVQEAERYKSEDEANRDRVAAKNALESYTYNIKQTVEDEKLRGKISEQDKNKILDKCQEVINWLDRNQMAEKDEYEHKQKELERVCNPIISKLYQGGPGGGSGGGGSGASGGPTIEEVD", "values": [{"measurement": "probe-labelled cysteine peptide fold change", "setting": "10 µM", "result": 0.0869}, {"measurement": "probe-labelled cysteine peptide fold change", "setting": "50 µM", "result": -0.0291}]}, {"target": "IDUA_P35475_481_YLDNGLCSPDGEWR (UniProt P35475)", "values": [{"measurement": "probe-labelled cysteine peptide fold change", "setting": "10 µM", "result": -0.0927}, {"measurement": "probe-labelled cysteine peptide fold change", "setting": "50 µM", "result": 0.123}]}, {"target": "HNRNPF_P52597_34_GLPWSCSVEDVQNFLSDCTIHDGAAGVHFIYTR (UniProt P52597)", "values": [{"measurement": "probe-labelled cysteine peptide fold change", "setting": "10 µM", "result": 0.154}, {"measurement": "probe-labelled cysteine peptide fold change", "setting": "50 µM", "result": 0.3}]}, {"target": "HTATIP2_Q9BUP3_172_YSVFRPGVLLCDR (UniProt Q9BUP3)", "values": [{"measurement": "probe-labelled cysteine peptide fold change", "setting": "10 µM", "result": -0.197}, {"measurement": "probe-labelled cysteine peptide fold change", "setting": "50 µM", "result": -0.113}]}, {"target": "L3HYPDH_Q96EM0_148_VNIHCPCGLVTAFVACEDGR (UniProt Q96EM0)", "values": [{"measurement": "probe-labelled cysteine peptide fold change", "setting": "10 µM", "result": -0.365}, {"measurement": "probe-labelled cysteine peptide fold change", "setting": "50 µM", "result": -1.45}]}, {"target": "KLHL6_Q8WZ60_252_LCLLPYVLENVR (UniProt Q8WZ60)", "values": [{"measurement": "probe-labelled cysteine peptide fold change", "setting": "10 µM", "result": 0.216}, {"measurement": "probe-labelled cysteine peptide fold change", "setting": "50 µM", "result": 0.0667}]}, {"target": "HNRNPK_P61978_145_GSDFDCELR (UniProt P61978)", "values": [{"measurement": "probe-labelled cysteine peptide fold change", "setting": "10 µM", "result": -0.0741}, {"measurement": "probe-labelled cysteine peptide fold change", "setting": "50 µM", "result": 0.0912}]}]}
